From PubChem BioAssay AID624417 (National Center for Advancing Translational Sciences (NCATS), 2012)
The campaign covered roughly 410,000 compounds. About 6,400 (1.6%) were called active. Inconclusive results, whose numbers are uncertain, are shown with a selection of clear calls. The call rests on the fitted dose curve; in most records, active means well fitted inhibition curve with a large enough effect; inconclusive means small, poorly fitted or top-dose-only effect; inactive means no such curve, though single readings can be large or run the other way. No potency is given beside an inconclusive call; the fits are too rough.

The compounds below were run against Glucagon-like peptide 1 receptor (Homo sapiens) (UniProt P43220) (assay: qHTS of GLP-1 Receptor Inverse Agonists (Inhibition Mode)). Conditions: HEK293 GLP-1R CRE-luciferase, luminescence, 24 h; Potency: GLP-1R form is constitutively active unless noted; activity change, negative = inhibition: at 38.3 µM (top of the series) unless noted.
UniProt P43220, sequence (P43220 whole entry, looked up): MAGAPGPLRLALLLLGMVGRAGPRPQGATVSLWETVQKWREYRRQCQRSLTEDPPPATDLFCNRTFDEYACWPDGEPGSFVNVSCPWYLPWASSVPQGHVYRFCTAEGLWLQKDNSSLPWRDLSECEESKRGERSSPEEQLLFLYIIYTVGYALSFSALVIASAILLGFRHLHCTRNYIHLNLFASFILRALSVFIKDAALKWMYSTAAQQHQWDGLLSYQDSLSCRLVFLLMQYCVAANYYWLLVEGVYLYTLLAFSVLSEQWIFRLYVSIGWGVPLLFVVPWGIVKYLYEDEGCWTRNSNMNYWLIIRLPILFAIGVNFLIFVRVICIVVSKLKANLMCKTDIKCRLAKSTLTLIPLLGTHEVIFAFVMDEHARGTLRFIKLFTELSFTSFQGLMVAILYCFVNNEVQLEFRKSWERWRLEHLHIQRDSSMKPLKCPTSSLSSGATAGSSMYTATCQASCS
Summary of the method: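 qHTS in 1536-well format: reporter HEK293 cells expressing constitutive GLP-1R activity in DMEM + 10% Nu serum, 24 hr with compounds at 37 deg C, luminescence read after 12 min with detection reagent.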
Further: nearly all actives have a fitted effect of over 55% in size.
On the % scale 0 is the no-effect control and ±100 the full control effect; potency means the concentration at half of the fitted maximal effect; tags describe the fitted curve by direction and shape.

Compound	Potency	activity change, negative = inhibition
O=C(Cc1ccccc1)N1CCN(CCCc2ccccc2)CC1	inconclusive [inhibitor, partial curve, poor fit]	
CCn1c(NN=O)nc2ccccc21	inconclusive [inhibitor, partial curve, poor fit]	
Cc1ccc(-c2nn(Cc3ccccc3)cc2C=O)cc1C	inconclusive [inhibitor, partial curve, poor fit]	
O=c1[nH]c2ccccc2n1C1CCN(C(CCc2ccccc2)c2nnnn2C2CCCC2)CC1 (centres undefined)	inconclusive [inhibitor, full curve, poor fit]	
C[C@H]1[C@@H](OS(=O)(=O)O)C[C@@H]2C[C@H]([C@@H](O)c3cc(=O)[nH]c(=O)[nH]3)NC3=NC[C@H]1N32	active: 2.51 µM [setting not given]	
COc1ccc2sc(N(Cc3cccnc3)C(=O)c3ccco3)nc2c1	inconclusive [inhibitor, single point]	
O=C1CN=C(c2ccc[nH]2)c2cc(Cl)ccc2N1	inconclusive [inhibitor, full curve, poor fit]	
CCOc1ccc(Nc2c(S(=O)(=O)c3ccc(C)cc3)cnc3ccccc23)cc1	inconclusive [inhibitor, partial curve, poor fit]	
Cc1ccccc1CN1CCN(c2ccc(Cl)cc2)CC1	inconclusive [inhibitor, partial curve, poor fit]	
Fc1ccccc1CSc1ncnc2c1ncn2C1CCCO1 (centres undefined)	inconclusive [inhibitor, single point]	
Cc1[nH]n(-c2ccccc2)c(=O)c1C(C[N+](=O)[O-])c1ccccc1Cl (centres undefined)	inconclusive [inhibitor, single point]	
CC(Cc1ccccc1)NC(=O)Cc1ccc([N+](=O)[O-])cc1 (centres undefined)		inactive: -1.47%
CC[C@H]1C2C[C@H]3[C@@H]4N(C)c5ccccc5C45C[C@H](C2[C@H]5O)N3[C@@H]1O (some centres undefined)		inactive: -14.5%
CN1C(=O)C(Cc2ccsc2)C(=O)N(C)C1=O		inactive: 0.486%
CCNC(=O)NC(=O)C(C)OC(=O)c1c(C)nn(Cc2ccccc2Cl)c1Cl (centres undefined)	inconclusive [inhibitor, single point]	
COc1cccc(NC(=O)N2CCc3nc(Nc4ccc(C(C)C)cc4)ncc3C2)c1	inconclusive [inhibitor, partial curve, poor fit]	
O=C(CNC(=O)c1ccccc1)Nc1ccc(Br)cc1C(=O)c1ccccc1	inconclusive [inhibitor, partial curve, poor fit]	
COC(=O)C1=C(c2ccc3ccccc3c2)C[C@@H]2CC[C@H]1N2C(=O)NC1CCCCC1	inconclusive [inhibitor, partial curve, poor fit]	
Cc1cccc(Cn2c(SCc3ccc(C(=O)NC4CCCCC4)cc3)nc3cccnc32)c1	inconclusive [inhibitor, partial curve, poor fit]	
N#CC(C#N)=NNc1ccc(S(N)(=O)=O)cc1	inconclusive [inhibitor, single point]	

Compound	Potency	activity change, negative = inhibition
Cc1ccc(C(c2nnnn2Cc2ccccc2)N2CC=C(c3ccc(F)cc3)CC2)cc1 (centres undefined)	inconclusive [inhibitor, partial curve, poor fit]	
Cc1oc(-c2ccccc2)nc1CN1C(=O)C(C)N=C(c2ccccc2F)c2cc(Cl)ccc21 (centres undefined)	inconclusive [inhibitor, single point]	
C=CCN1C(=O)/C(=C/c2ccc3c(c2)CCCN3CCC)C(=O)NC1=S		inactive: -4.01%
O=C1NC(=O)N(Cc2ccccc2)C(=O)/C1=C/c1cnc(-c2ccccc2)nc1		inactive: 4.45%
CCC1=CCN(CCc2c(C)[nH]c3ccccc23)CC1	inconclusive [inhibitor, single point]	
CC(=O)C1C(N2CC2)CC2C3CCC4=CC(=O)CCC4(C)C3CCC21C (centres undefined)		inactive: -20.2%
COc1cccc(N2CCN(CC(=O)Nc3ccc(SC(F)F)cc3)CC2)c1	inconclusive [inhibitor, partial curve, poor fit]	
CCCCCCC(=O)N/N=C/c1c(O)n(CCc2ccccc2)c(=O)[nH]c1=O	inconclusive [inhibitor, single point]	
Cc1ccc(N2CCN(C(=O)C3CCC(CNS(=O)(=O)c4ccc(Br)s4)CC3)CC2C)cc1 (centres undefined)	inconclusive [inhibitor, single point]	
CNc1ccc2nc3ccccc3[n+](C)c2c1	inconclusive [inhibitor, single point]	
CCOc1cc(-c2c(C#N)c(=O)[nH]c3c2c(C)nn3-c2ccc(F)cc2)ccc1O	inconclusive [inhibitor, partial curve, poor fit]	
CCc1ccc(OCC(=O)N2CCN(CC(=O)Nc3ccccc3Cl)CC2)cc1	inconclusive [inhibitor, partial curve, poor fit]	
COc1ccc(C#Cc2ccc3c(c2)O[C@H](CN(C)C(C)=O)[C@H](C)CN([C@@H](C)CO)S3(=O)=O)cc1	inconclusive [inhibitor, single point]	
NC(=Nc1ccccc1)Nc1ccccc1	inconclusive [inhibitor, single point]	
O=c1[nH]c(=O)n(CCc2ccc(F)cc2)c(O)c1C=NCCCn1ccnc1		inactive: -25%
Cc1cccc(N2CCN(C(=O)CCS(=O)(=O)c3ccc4c(c3)oc(=O)n4C)CC2)c1C	inconclusive [inhibitor, single point]	
O=C(CCCOc1ccc(Cl)cc1Cl)Nc1cc(S(=O)(=O)N2CCOCC2)ccc1N1CCOCC1	inconclusive [inhibitor, single point]	
COc1ccc(CN2CCN(C(=O)COc3ccc4ccccc4c3)CC2)c(OC)c1	active: 10 µM	
c1ccc(/N=C2\N=C(Nc3ccccn3)c3ccccc32)nc1	inconclusive [inhibitor, full curve, poor fit]	
CC(=O)OC(C)(C)/C=C/C(=O)[C@](C)(O)C1[C@H](O)C[C@@]2(C)C3CC=C4C(C[C@H](O)C(=O)C4(C)C)[C@]3(C)C(=O)C[C@]12C (some centres undefined)	inconclusive [inhibitor, partial curve, poor fit]	

Compound	Potency	activity change, negative = inhibition
CN(C)CCSC1c2ccccc2CSc2ccccc21 (centres undefined)	inconclusive [inhibitor, partial curve, poor fit]	
Cc1ccc(-n2c(/C=C/c3cc(Br)cs3)nc3ccccc3c2=O)cc1C	inconclusive [inhibitor, single point]	
O=C(Cc1c[nH]c2ccccc12)NNCc1ccc(N(CCCl)CCCl)cc1	inconclusive [inhibitor, partial curve, poor fit]	
O=CC(Cl)P(=O)(N1CCCCC1)N1CCCCC1 (centres undefined)	inconclusive [inhibitor, partial curve, poor fit]	
COc1ccccc1OP(=O)(Nc1cccnc1)Oc1ccccc1OC	inconclusive [inhibitor, partial curve, poor fit]	
O=C(CCN1CCCCC1)NCC(=O)Nc1ccc(Br)cc1C(=O)c1ccccc1		inactive: 0%
O=S(=O)(c1ccc(Cl)cc1)N1CCCCC1c1cccnc1 (centres undefined)	inconclusive [inhibitor, single point]	
CN(C)S(=O)(=O)c1ccc(C(=O)NNc2nc(-c3ccccc3)c3cc(Br)ccc3n2)cc1	inconclusive [inhibitor, single point]	
CCOc1ccc(NC(=O)CN(c2ccc(Cl)cc2C)S(=O)(=O)c2ccccc2)cc1	inconclusive [inhibitor, full curve, poor fit]	
C=CCSc1nc2c(c(-c3ccsc3)c1C#N)CN(C)CC2	inconclusive [inhibitor, partial curve, poor fit]	
COc1cc(/C=C/c2nc3ccccc3c(=O)n2-c2ccc(O)cc2)ccc1O	inconclusive [inhibitor, single point]	
CC(C)(C)NC(=O)NC(=O)CN1CC=C(c2ccccc2)CC1	inconclusive [inhibitor, partial curve, poor fit]	
Cc1cccc(CN2CCc3nc(N4CCN(c5ccccn5)CC4)ncc3C2)c1	inconclusive [inhibitor, full curve, poor fit]	
CC[C@@H](C(=O)[C@@H](C)[C@@H](O)[C@H](C)[C@@H]1O[C@@H]([C@@H](CC)C(=O)O)CC[C@@H]1C)[C@H]1O[C@]2(C=C[C@@H](O)[C@]3(CC[C@@](C)([C@H]4CC[C@](O)(CC)[C@H](C)O4)O3)O2)[C@H](C)C[C@@H]1C	inconclusive [inhibitor, full curve, poor fit]	
O=C(NCCSc1c(-c2ccc(F)cc2)[nH]c2ccccc12)c1ccc(S(=O)(=O)N2CCOCC2)cc1	inconclusive [inhibitor, single point]	
O=c1[nH]sc2cc(F)ccc12	inconclusive [inhibitor, single point]	
CCOc1cc(CNCCc2cccc(F)c2)ccc1OC	inconclusive [inhibitor, single point]	
Cc1cccc(C)c1OCC(=O)Nc1ccc(Cl)cc1C(=O)c1ccccc1	inconclusive [inhibitor, single point]	
CN(C)c1ccc(NC(=O)CN2C(=O)CN=C(c3ccccc3)c3ccccc32)cc1	inconclusive [inhibitor, partial curve, poor fit]	
